Measured values from the supplement of paper PMC10338343.
± gives the standard deviation. The list shows a part of the results, in another mix than the full data.

system: MIWI (PIWIL1) piRISC loaded with L1MC piRNA (30 nt); test: pre-steady-state target cleavage rate (min^-1); MIWI and MILI are mouse PIWI proteins and EfPiwi is from a freshwater sponge; tags in brackets are library labels; higher = faster piRNA-guided slicing of the target; conditions: guide: L1MC piRNA 5'p-UAACUAAAUACUAUGCAAGCUGUAGGUCCU; auxiliary factor: 500 nM mouse GTSF1
Outline: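 A burst-and-steady-state fit was used to obtain the pre-steady-state cleavage rate. The input data were sequencing reads of uncleaved targets, normalised to depth and to weakly complementary targets, from a […] transcribed, DNA-blocked target RNA library mixed with 1 nM active affinity-purified piRISC holding one synthetic guide, with or without 500 nM GTSF1 partner protein, in HEPES–potassium acetate buffer at 33 °C for 0–8 or 0–960 min. Three trials were pooled and k3 was capped at 0.0001 min^-1.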
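Further: 1 nM active piRISC with 0.1 nM target library at 33 °C single turnover.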

Row | Sequence | pre-steady-state target cleavage rate
1 | AGGUCCUACAGCUUGCAUAGUAUAUAGUUA | 0.548 ± 0.042
2 | UCGACCUACAGCUUGCAUAGUAUUUAGGUUA | 0.439 ± 0.067
3 | UCCUGCUACAGCUUGCAUAGUAUUUCAGUUA | 0.556 ± 0.069
4 | UCCUGGUACAGCUUGCAUAGUAUAUUGUUA | 0.24 ± 0.05
5 | UCGACCUAUCAGCUUGCAUAGUAUUUAGUUA | 1.61 ± 0.06
6 | UCGAGCUACAGCUUGCAUACUAUUUAGUUA | 0.385 ± 0.018
7 | AGGUCCUACAGCUUGCAUAGUAUUUAGUAA | 0.77 ± 0.055
8 | UGGUCCUACAGCUUGCAUAGUAUAUAGUUA | 0.647 ± 0.044
9 | UCGAGCUACAGCUUGCAUAGUAUUUAGUUA | 1.41 ± 0.062
10 | UGGACCUACAGCUUGGAUAGUAAUUAGUUA | 0.73 ± 0.041
11 | AGGACCUACACCUUGCAUAGUAAUUAGUUA | 0.861 ± 0.074
12 | UCCUCCUACAGCUUGCAUAGUAUAUAGUAA | 0.3 ± 0.037
13 | UCCUGGAUGAGCUUGCAUUGUUUUUAGUUA | 0.0119 ± 0.0042
14 | UCGACCUACAGCUUGCAUAGUAUUUUGUUA | 0.921 ± 0.043
15 | UCCUGGUACAGCUUGCAUAGUAAUUUAGUUA | 0.0838 ± 0.011
16 | UCCUGCUACAGCUUGCAUAGUAUUGAGUUA | 0.31 ± 0.046
17 | UCCUGGUACAGCUGCAUAGUAUUUAGUUA | 0.582 ± 0.035
18 | UGGACCUACAGCUUGCAUAUAUUUAGUUA | 0.429 ± 0.067
19 | UCCUGGAACAGCUUGCAUAGUACUUAGUUA | 0.835 ± 0.057
20 | AGGACCUACAGCUUGCAAUGUAUUUAGUAA | 0.332 ± 0.028

Row | Sequence | pre-steady-state target cleavage rate
21 | UCGACGUACAGCUUGCAUAGUAUUUACUUA | 0.217 ± 0.021
22 | UCCUGGAACAGCUUGCUUAGUAUUUUGUUA | 0.529 ± 0.044
23 | UCCUGCUACAGCUUGCAUAGAAUUUAGAUA | 0.273 ± 0.042
24 | AGGACCUACAGCUUGCAUAGUAUGUAGUUA | 0.647 ± 0.13
25 | UCCACCUAGUGCUUGCAUAGUAUUUAGUAA | 0.344 ± 0.052
26 | UCCACCUACAGCUUGCAUAGUUAAUAGUUA | 0.0808 ± 0.015
27 | UCCUCCUACAGGUUGCAUAGUAUUUACUUA | 0.186 ± 0.027
28 | UCCACGUACAGCUUGCAUAGUAUUUAGUAA | 0.521 ± 0.032
29 | AGCACCUACAGCUUGCAUACUAUUUAGUUA | 0.471 ± 0.099
30 | UCCUGGAUGAGCAUGCAUUGUAUUUAGUUA | 0.0771 ± 0.0069
31 | UCCUGGAUCAGCUUGCAUAGUAAUUUAGUUA | 0.0743 ± 0.011
32 | AGGACCAUCAGCUUGCAUAGUAUUUACAAA | 0.395 ± 0.044
33 | UCCUGGAACAGCUUGCAUAGUAUUUUGUUA | 0.597 ± 0.048
34 | UCCACCUACAGCUUGCUUAGUUUUUAGUUA | 0.175 ± 0.017
35 | UGCACCUACAGCUUGCUUAGUAUUUAGUUA | 1.25 ± 0.092
36 | UCCUGGAACUGCUUGCAUAGUAUUAAGUUA | 0.288 ± 0.024
37 | UCCUGGAUGUCGAACGUAUGUUAAUAGUUA | < 0.0001
38 | UCCUGCUAGUCCUUGCAUAGUAUUUAGUAA | 0.08 ± 0.016
39 | UCCACCAACAGCUUGGAUAGUAUUUAGUUA | 1.36 ± 0.056
